Measurements as given in PubChem BioAssay AID1508624 (National Center for Advancing Translational Sciences (NCATS), 2021).
Screen size: about 48,000 compounds; about 120 (0.25%) were called active. Not shown: some 4% with an inconclusive outcome. The call rests on the fitted dose curve; in most records, active means well fitted activation curve with a large enough effect; inconclusive means small, poorly fitted or top-dose-only effect, or another doubt; inactive means no such curve, though single readings can be large or run the other way. The list shows a part of the results.

Test: Primary qHTS for Identification of Small Molecule Activators of Huntingtin-Antisense Promoter Activity; further: nearly all actives have a fitted effect of over 55% in size
Conditions: HEK293 HTT-AS promoter firefly luciferase reporter (activity 0% = vehicle and -100% = no light), 24 h; series mostly up to 57.5 µM; activity change, positive = activation: at the top concentration
Summary of the method: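 HEK293 luciferase promoter-reporter cells (2,500/well) plated 24 h, then compounds added at up to 57.5 uM final for 24 h at 37 °C. Firefly luminescence by Dual-Glo, normalized to vehicle (0%) and zero RLU (-100%).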

Activity change, positive = activation, inactive:
Cc1ccc(Cl)cc1NC(=O)c1nnn(Cc2ccccc2)c1N -27.5%
COc1cccc(CNC(=O)C2CCN(Cc3cc4ccccc4n3Cc3ccccc3)CC2)c1OC -20.8%
Cc1ccc(-n2ncc(C(=O)NCc3ccccn3)c2C2CCN(C(=O)OC(C)(C)C)CC2)cc1C -30.3%
Cc1ccc(NC(=O)CSc2nc3ccccc3nc2Cc2ccccc2)c(Cl)c1 -7.99%
Cc1ccc(CN2c3ccccc3-c3nc(SCC(=O)NCCc4ccccc4)ncc3S2(=O)=O)cc1 -3.43%
CCN(CC)CCNC(=O)c1ccc(-c2nc(CN3CCc4ccccc43)c(C)o2)cc1 -26.3%
CCOC(=O)c1cccc(NC(=O)CSc2cc(=O)n(C)c3ccccc23)c1 -34.2%
O=C(Nc1ccc(C(F)(F)F)cc1)c1cc(S(=O)(=O)N2CCCc3ccccc32)ccc1F -73.5%
COc1ccc(-c2nc(CN3CCC(C(=O)NCc4ccc(C)cc4)CC3)c(C)o2)cc1OC -23.8%
CC(=O)OCC(=O)[C@@]1(O)[C@H](OC(C)=O)C[C@H]2[C@@H]3CCC4=CC(=O)C=C[C@]4(C)[C@@]3(F)[C@@H](O)C[C@@]21C 0.853%
CC(C)(C)c1cc(C(=O)O)c(NC(=O)Nc2ccc3[nH]ncc3c2)s1 3.19%
CCOc1ccc(CNC(=O)CCCn2c(=O)c3cccn3c3ccccc32)cc1 -21.1%
COc1ccc(CCNC(=O)C(=O)NCC(c2cccs2)S(=O)(=O)c2cccs2)cc1 (stereo not given) -36.5%
COc1ccc(C(=O)n2nc(-c3cccnc3)nc2NCc2ccccc2)cc1OC 16.9%
CCOc1ccccc1Nc1nc2ccccc2nc1NS(=O)(=O)c1ccc(Cl)cc1 -26.3%
COc1ccccc1CNc1ncnc2onc(-c3ccc(F)cc3)c12 7.57%
CC(=O)N1CCCc2cc(S(=O)(=O)N3CCC(C(=O)Nc4c(C)cccc4C)CC3)ccc21 -47%
COc1cccc2c1cc1c(=O)n(CC(=O)N3CCN(c4ccc(F)cc4)CC3)nc(C)n12 -16%
COc1ccc2nc(SCC(O)c3cccc(Br)c3)[nH]c2c1 (stereo not given) -3.18%
CCCS(=O)(=O)c1nc(S(=O)(=O)c2ccc(C)cc2)c(NCCCOC(C)C)s1 -20.3%
Cc1ccc(Sc2ccc(N3CCCC(C(=O)Nc4ccc(F)cc4)C3)nn2)cc1 (stereo not given) -30.3%
CCN(CC)C(=O)CSc1nc2cc3c(cc2c(=O)n1CCCC(=O)NCc1ccc2c(c1)OCO2)OCO3 -20.3%
COc1ccc(-c2cn3c(n2)sc2cc(C(=O)NCCCc4ccccc4)ccc23)cc1 8.17%
O=C(Cn1nc(N2CCN(c3ccccc3)CC2)ccc1=O)NCc1ccccc1F -10.9%
CCOc1ccc(NC(=O)c2cn(C3CCCCC3)c(=O)c3c2c2ccccc2n3C)cc1 -6.85%
Cc1cccc(C(=O)Nc2ccccc2OCc2cc(=O)n3ccccc3n2)c1 -2.72%
Cc1ccc(-c2nnc(SCC(=O)NC(C)(C)C)nc2-c2ccc(C)cc2)cc1 -24.8%
Cn1c(=O)c2c(nc(NCCc3ccccc3)n2Cc2ccccc2Br)n(C)c1=O -5.11%
CCOc1ccc(C(=O)N(Cc2nc(-c3cccc(C)c3)no2)C(C)C)cc1 -11.1%
COc1ccc2c(c1)c(CC(=O)Nc1cc(C)cc(C)c1)c(C)n2C(=O)c1ccc(Cl)cc1 -10.9%
CCOc1cc(S(=O)(=O)NCCc2c(C)[nH]c3ccc(C)cc23)ccc1F -18.8%
O=C(NCc1ccccc1)c1cnc2sc(N3CCCC3)nn2c1=O -5.7%
CCN(CC)C(=O)c1sc2c(c1C)c(=O)n(Cc1ccccc1)c(=O)n2Cc1cc(C)ccc1C -36.8%
COc1ccc(C)cc1NC(=O)c1sc2nc(-c3ccc(F)cc3)cn2c1C 18.9%
O=C1CCCC2=C1C(c1[nH]ncc1Cl)N=C(Nc1nc3ccccc3o1)N2 (stereo not given) -5.99%
Cc1cc(C)c2oc(C(=O)Nc3ccc(S(=O)(=O)Nc4ncccn4)cc3)cc(=O)c2c1 -2.17%
O=C(CCCn1ncn2c(cc3occc32)c1=O)NCc1ccccc1F -11.3%
Cc1cc2c(cc1S(=O)(=O)C(C)CC(=O)NC1CCC(C)CC1)OCC(=O)N2 (stereo not given) -4.48%
O=C(Nc1ccccc1C(F)(F)F)c1cc2nc(-c3ccccc3)cc(-c3ccccc3)n2n1 -6.49%
COc1ccccc1NC(=O)c1sc(-c2ccc(Cl)cc2)cc1N 3.73%
CCc1ccc2c(c1)NC(c1ccc(F)cc1)=NC(c1ccncc1)=N2 6.33%
CCc1nnc(SCc2cccc(Cl)c2)c2cc3sccc3n12 -21.4%
Cc1cc(C)c(NC(=O)CSc2nc3nccnc3c(=O)n2CCc2c[nH]c3ccccc23)c(C)c1 -10.1%
CCOc1cccc(C(=O)Nc2ccc3oc(-c4ccncc4)nc3c2)c1 -24.5%
COc1cc(OC)c(NS(=O)(=O)c2c(C)nc3sc(C)cn3c2=O)cc1Cl -38.3%
COc1ccc(-c2cc(OC(=O)c3ccccc3Cl)c3c(C)oc(C)c3c(=O)c2)cc1OC -24.7%
COc1ccc2c(CNC3CCCCCC3)c(C(=O)O)n(Cc3ccc(C)cc3)c2c1 -36.3%
COc1ccc(CNC(=O)CN2C(=O)COc3ccc(S(=O)(=O)N4CCCCC4)cc32)cc1 -4.75%
CN(C)c1ccc(-c2nc3ncc(Cl)c(N4CCN(CC(=O)Nc5nccs5)CC4)c3[nH]2)cc1 14.2%
Cc1cc(F)ccc1NC(=O)Cn1nc(N2CCN(c3ccccc3)CC2)ccc1=O -24.2%
Cc1ccc(Cn2c(C)c3cnn(CC(=O)O)c(=O)c3c2C)cc1 1.82%
O=C(Cn1cc(SCc2ccc(F)cc2)c2ccccc21)N1CCCCC1 4.94%
CCCSc1oc(-c2cccs2)nc1S(=O)(=O)c1ccc(C)cc1 -15.3%
O=C(Nc1cccc(C(=O)OCc2cc(=O)n3c4c(sc3n2)CCCC4)c1)c1ccc(Cl)cc1 -26.2%
COc1ccc(NC(=O)Cn2c(=O)n(CCCCCC(=O)NCc3ccc4c(c3)OCO4)c(=O)c3sccc32)cc1Cl -60.4%
COc1cccc(N2CCN(C(=O)Cn3nc(C)n4c(cc5c(OC)cccc54)c3=O)CC2)c1 1.71%
COC(=O)c1c(NC(=O)COc2ccc(Cl)cc2)sc(C)c1C -0.24%
COCc1cc(C)nc2c1C(=O)NC(c1ccc(Br)cc1)N2Cc1ccccc1 (stereo not given) -12.7%
COc1cc(Cl)c(C)cc1NC(=O)Cn1c2ncccc2c(=O)n1-c1ccccc1 -6.11%
CCc1ccc(-n2nnc(-c3nc(-c4ccc(C)cc4)no3)c2N)cc1 -1.9%
